To fix the notation:
B1: TPR 5TU (parent)
chain: GGAUCUUCUCGAUCUAACAAAAAAGACAAAUCUGCCACAAAGCUUGAGAGCAUCUUCGGAUGCAGAGGCGGCAGCCUUCGGUGGCGCGAUAGCGCCAACGUUCUCAACUAUGACACGCAAAACGCGUGCUCCGUUGAAUGGAGUUUAUCAUG

This sample is rich in variants without activity.

The values that follow come from the RNAGym collection of RNA variant scans (doi:10.1073/pnas.2313332121).

The variants in this data set derive from B1. Description: polymerase ribozyme fitness, log enrichment relative to wild type (log ratio); higher = more active; in vitro selection for triplet polymerase activity. In a few lines:
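Each subunit of a heterodimeric triplet polymerase ribozyme was mutagenized into a library by PCR, transcribed, and subjected to one round of in vitro selection, run in triplicate. Libraries were annealed with a biotinylated primer, the partner subunit and triplets, incubated frozen at −7 °C, and extended constructs were gel-excised, captured on streptavidin beads and recovered by RT-PCR. Input and output libraries were sequenced on Illumina, keeping genotypes with ≥10 input reads and ≥1 read per output. Fitness is log base 2 of genotype enrichment divided by wild-type enrichment, from inverse-variance-weighted replicate averages.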
Regarding GGAUCUUCUCGAUCUAACAAAAAAGACAAAUCUGCCACAAAGCUUGAGAGCAUCUUCCGAGGCAGAGGCGGCAGCCUUCGGUGGCGCGAUAGCGCCAACGUAGUCAACUAUGACACGCAAAACGCGUGCUCCGUUGAAUGGAGUUUAUCAUG [G58C U61G U102A C103G], the “polymerase ribozyme fitness (log ratio)” value was no more than -4.2.

As for GGAUCUUCUCGAUCUAACAAAAAAGACAAAUCUGCCACAAAGCUUGAGAGCAUCUUCGAAUGCAGAGGCGGCAGUCUUCGGUGGCGCGCUAGCGCCAACGUUCUCAACUAUGACACGCAAAACGCGUGCUCCGUUGAAUGGAGCUUAUCUUG [G59A C75U A89C U144C A150U], the “polymerase ribozyme fitness (log ratio)” value was no more than -4.2.

Take GGAUCUUCUCGAUCUAACAAAAAAGACAAAUCUGCCACAAAGCUUGAGAGCAUCUUCGAAUGCAGAGGCGGCAGCCUUCGGUGGCGCGAUAGCGCCAACGUUCUCAAGUAUGACACGCAAAACUCGUGCUCCGUUGAAUGGAGUUUAUCAUG [G59A C108G G124U]: the “polymerase ribozyme fitness (log ratio)” value is no more than -4.2.

On to GGAUCUUCUCGAUCUAACAAAAAAGACAAAUCUGCCACAAAGCUUGAGAGCAUCUUCUGAUGCAGAGGCGGCAGCCUUCGGUAGUGCGAUAGCGCCAACGUUCUCAACUAUGACACGCAAAACGCGUGCUCCGUUGAAUGGAGUUUAUCAUG [G58U G83A C85U], for which the “polymerase ribozyme fitness (log ratio)” value is -0.262.

Consider GGAUCUUCUCGAUCUAACAAAAAAGACAAAUCUGCCACAAAGCUUGAGAGCAUCUUCGAUUGCAGAGGCGGCAGCCUUCGGUGGCGAGAUAGCGCCAACGUUCUCAACUAUGACACGCAAAACGCGCGCUCCGUUGAAUGGAGUGUAUCAUG [G59A A60U C87A U127C U145G], for which the “polymerase ribozyme fitness (log ratio)” value is no more than -4.2.

GGAUCUUCUCGAUCUAACAAAAAAGACAAAUCUGCCACAAAGCUUGAGAGCAUCUUCUGAUGCAGAGGCGGCAGCCUUCGGUGGCGCGAUAGCGCCAACCUUCUCAACUAUGACACGCAAAACGCGUGUUCCGUUGAAUGGAGUUUAUCAUG [G58U G100C C129U]: the “polymerase ribozyme fitness (log ratio)” value is no more than -4.2.

As to GGAUCUUCUCGAUCUAACAAAAAAGACAAAUCUGCCACAAAGCUUGAGAGCAUCUUCGAGUGCAGAGGCGGCAGCCUUCGGUGGCGCGAUAGCUACAACGUUCUCAACUAUGACACGCAAAACGCGUGCUCCGUUGAAUGGAGUUUAUCAUG [G59A A60G G94U C95A], the “polymerase ribozyme fitness (log ratio)” value is -1.74.

With GGAUCUUCUCGAUCUAACAAAAAAGACAAAUCUGCCACAAAGCUUGAGAGCAUCUUCUGAUGCAGAGGCGGCAGCCUUCGGUGGCGUGAUAGCGCCAACGUUCUCAACUAUGACACGCAAAACGGGUGCUCCGUUGAAUGGAGUUUAUCAUG [G58U C87U C125G], the “polymerase ribozyme fitness (log ratio)” value is -0.741.

In the case of GGAUCUUCUCGAUCUAACAAAAAAGACAAAUCUGCCACAAAGCUUGAGAGCAUCUUCCGAAGCAGAGGCGGCAGCCUUAGGUGGCGCGAUGGCGCCAACGUUCUCAACUAUGACACACAAAACGCGUGCUCCGUUGAAUGGAGUUUAUCAUG [G58C U61A C79A A91G G117A], the “polymerase ribozyme fitness (log ratio)” value is no more than -4.2.

For the variant GGAUCUUCUCGAUCUAACAAAAAAGACAAAUCUGCCACAAAGCUUGAGAGCAUCUUCUGAUGCAGAGGCGGCAGCCUUCGGUGGCGCGAUAGCGCUAACGUUCUCAACUAUGACACGCAAAACGCGUGCUCCGUUGAAUGAAAUUUAUCAUG [G58U C96U G141A G143A], the “polymerase ribozyme fitness (log ratio)” value was no more than -4.2.

In the case of GGAUCUUCUCGAUCUAACAAAAAAGACAAAUCUGCCACAAAGCUUGAGAGCAUCUUCGAAUGCAGAGGCGGCAGCCUUCGGUGGUGCGAUAGCGCCAACGUUCUCAACUAUGACACGCAAAACGCGUGCUCCGAUGAAUGGAGUUUAUCAUG [G59A C85U U134A], the “polymerase ribozyme fitness (log ratio)” value is -3.92.

On to GGAUCUUCUCGAUCUAACAAAAAAGACAAAUCUGCCACAAAGCUUGAGAGCAUCUUCUGAUGCAGAGGCGGCAGCCUUCGGUGGCGCGAUGGCGCCAACGUUCUCAACUAUGACACGCAAAACGCGUGCUCCGUUGAAUGGAGUUUAUCAUG [G58U A91G], for which the “polymerase ribozyme fitness (log ratio)” value was -2.46.

Regarding GGAUCUUCUCGAUCUAACAAAAAAGACAAAUCUGCCACAAAGCUUGAGAGCAUCUUCGAAUGCAGAGGCGGCAGCCUUCGGUGGCGCGAUAGCGCCAACGUUAUCAACUAUGACACGCAAAACGCGUGCUCGGUUGAAUGGAGUUUAUCAUG [G59A C103A C132G], the “polymerase ribozyme fitness (log ratio)” value is no more than -4.2.

On to GGAUCUUCUCGAUCUAACAAAAAAGACAAAUCUGCCACAAAGCUUGAGAGCAUCUUCUGAUGCAUAGGCUGCAGCCUUAGGUGGCGCGAUAGGGCCAACGUUCUGAACUAUGACACGCAAAACGCGUGCUCCGUUGAAUGGACUUUAUCAUG [G58U G65U G70U C79A C93G C105G G143C], for which the “polymerase ribozyme fitness (log ratio)” value is no more than -4.2.

In the case of GGAUCUUCUCGAUCUAACAAAAAAGACAAAUCUGCCACAAAGCUUGAGAGCAUCUUCGAAUGCAGAGGCGGCAGCGUUCGGUGGCGCGAUAGGGCCAACGUUCUCAACUAUGACACGCAAAACGCGUGCUCCGUUGAAUGGAGUUUAUCAUG [G59A C76G C93G], the “polymerase ribozyme fitness (log ratio)” value was no more than -4.2.

For the variant GGAUCUUCUCGAUCUAACAAAAAAGACAAAUCUGCCACAAAGCUUGAGAGCAUCUUCCGAUGCAGAGGCGGCAGCCUUCGGUGGCGCGAUAGCGCCAACGUUCUCAACUAUGACACGCAAAACGCGUGCUCCGUUCAAUAGAGUUUAUCAUG [G58C G136C G140A], the “polymerase ribozyme fitness (log ratio)” value was no more than -4.2.

For GGAUCUUCUCGAUCUAACAAAAAAGACAAAUCUGCCACAAAGCUUGAGAGCAUCUUCUGAUGCUGAGGCGGCAGCCUUCGGUGGUGCGAUAGCGCCAACGUUCUCAACUAUGACACGCAAAACGCGUGCUCCGUUGAAUGGAGUUUAUCAUG [G58U A64U C85U], the “polymerase ribozyme fitness (log ratio)” value was no more than -4.2.

For GGAUCUUCUCGAUCUAACAAAAAAGACAAAUCUGCCACAAAGCUUGAGAGCAUCUUCGAAUGCCGAGGCGGCAGCCUUCGGUGGCGCCAUAGCGCCAACGUUCUCAACUAUGACACGCAAAACGCGUGCUCCGUUGAAUGGAGUUUAUCAUG [G59A A64C G88C], the “polymerase ribozyme fitness (log ratio)” value is no more than -4.2.

As for GGAUCUUCUCGAUCUAACAAAAAAGACAAAUCUGCCACAAAGCUUGAGAGCAUCUUCGAUUGCAGAGGCGGCAGCGUUCGGUGGCGCGAUAGGGCCAACGUUCUCAGGUAUGACACGCAAAACGCGUGCUCCGUUGAAUGGAGUUUAUCAUG [G59A A60U C76G C93G A107G C108G], the “polymerase ribozyme fitness (log ratio)” value is no more than -4.2.
